Test results reported in PubChem BioAssay AID1508624 (National Center for Advancing Translational Sciences (NCATS), 2021).
Hit rate of the full screen: of about 48,000 compounds, about 120 (0.25%) were called active. Not shown: some 4% with an inconclusive outcome. Calls follow the shape of the dose curve; as a rule, active = well fitted activation curve with a large enough effect; inconclusive = small, poorly fitted or top-dose-only effect, or another doubt; inactive = no such curve, though single readings can be large or run the other way. Some of the results follow.

assay: Primary qHTS for Identification of Small Molecule Activators of Huntingtin-Antisense Promoter Activity; conditions: HEK293 HTT-AS promoter firefly luciferase reporter (activity 0% = vehicle and -100% = no light), 24 h; series mostly up to 57.5 µM; activity change, positive = activation: at the top concentration; also: nearly all actives have a fitted effect of over 55% in size
Procedure, shortened: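 Luminescence was read after Dual-Glo reagent and a 10 min room-temperature incubation. Values were normalized to vehicle (0% activity) and zero RLU (-100% activity). Reporter HEK293 cells had been exposed to compounds (up to 57.5 uM final) for 24 h.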

Activity change, positive = activation, inactive:
COc1ccc(NC(=O)c2oc3ccc(S(=O)(=O)N4CCOCC4)cc3c2C)c(OC)c1 -17.4%
COc1ccc(CCNC(=O)c2cnn(-c3ccc(F)cc3)c2C2CCN(C(=O)OC(C)(C)C)CC2)cc1OC -12.5%
COc1ccc(N2CCN(C(=O)c3cc4c(=O)n(Cc5cccnc5)ccc4nc3C)CC2)cc1 -11%
O=C(CN1C(=O)C2(SCC(=O)N2c2ccc(F)c(F)c2)c2ccccc21)NCCc1ccccc1 (stereo unspecified) -10.2%
CCOc1cc(C(c2c(C)[nH]n(-c3ccccc3)c2=O)c2c(C)[nH]n(-c3ccccc3)c2=O)ccc1O -87%
Cc1[nH]c2ccc(C(=O)N3CCN(c4ccccc4F)CC3)cc2c1C -16.4%
CCN(CC)S(=O)(=O)c1ccc(NC(=O)Cn2ncc3c([nH]c4ccccc43)c2=O)cc1 -22.2%
CC(Oc1ccccc1)C(=O)Nc1ccc(C(=O)OCc2cc(=O)n3nc(C(C)C)sc3n2)cc1 (stereo unspecified) 18.7%
O=C(NCCc1ccc(F)cc1)C(=O)NCC(c1ccco1)S(=O)(=O)c1ccccc1 (stereo unspecified) -21.4%
CCOc1ccc(/C=C/c2nc(C#N)c(N3CCN(CC)CC3)o2)cc1 -14.3%
COC(=O)c1ccc(NC(=O)c2c(NCc3cccc(F)c3)sc3c2CCCC3)cc1 -7.11%
Cc1cc2c(cc1S(=O)(=O)N(CCN(C)C)Cc1ccccc1)OCC(=O)N2 -7.09%
COc1ccccc1C(c1c(O)cc(C)n(Cc2ccco2)c1=O)N1CCCCC1 (stereo unspecified) 8.53%
CCC(Oc1ccccc1F)C(=O)Nc1cc(-c2ccccc2)no1 (stereo unspecified) 13.5%
COc1ccc(C(=O)NCCn2cc(SCC(=O)Nc3ccc4c(c3)OCCO4)c3ccccc32)cc1 -63.6%
Cc1cccc(N2CCN(S(=O)(=O)c3cc(C(=O)Nc4ccc(Oc5ccccc5)cc4)ccc3F)CC2C)c1 (stereo unspecified) -46.1%
Cc1nn(-c2ccccc2)c2sc(C(=O)Nc3ccc(Cl)cc3Cl)cc12 -7.11%
CCCCN(C)CCNC(=O)c1nn(-c2ccc(OC)c(Cl)c2)c(=O)c2c1c1ccccc1n2C -3.01%
COc1ccc(CNC(=O)Cn2c(=O)c3cccn3c3cccnc32)cc1 -12.4%
COc1ccc(C(=O)Nc2nnc(SCc3cc(=O)c4cc(C)ccc4[nH]3)s2)cc1OC -6.2%
Cc1cccn2c(=O)c(C(=O)N3CCN(c4ccccc4F)CC3)cnc12 -9.76%
CCN(CC)c1ccc2cc(-c3nnc(Nc4ccc(C)cc4)s3)c(=O)oc2c1 -12.4%
COC(=O)C1=C(CS(=O)(=O)c2ccc(C)cc2C)NC(=O)NC1c1ccc(C)cc1 (stereo unspecified) -35.6%
Cc1cc(C)c(S(=O)(=O)NCc2ccc3c(c2)CCN3C(=O)c2ccccc2)c(C)c1 -29.8%
CCOc1ccccc1NC(=O)Cn1nnc(C(=O)NCc2cccs2)c1N -37.7%
CC(=O)N1c2ccccc2C(=O)C1N1CCN(c2ccc(Cl)cc2)CC1 (stereo unspecified) -16.5%
CCOc1c(Br)cc(C2C=C(C(=O)O)Nc3ncnn32)cc1OC (stereo unspecified) 4.61%
COc1ccc(NCc2cc3cc4c(cc3n(CC(=O)Nc3ccc(C)cc3C)c2=O)OCO4)cc1 4.55%
O=C(NCc1ccccc1)c1cc(Sc2cccc(Cl)c2)nc2ccccc12 -18.3%
CCOC(=O)c1cc(OC(=O)c2ccccc2F)n(-c2ccccc2)n1 -9.34%
Cc1ccc(-c2nc(S(=O)(=O)c3ccc(F)cc3)c(N3CCN(c4ccccc4)CC3)o2)cc1 -5.5%
Nc1nc2c(ncn2COCCO)c(=O)[nH]1
CC(C)C[C@H](N)c1nnc(SCc2ccc(Cl)cc2Cl)o1 -15.9%
Cc1ccccc1Nc1nn2c(=O)c3ccc(C(=O)NCC(C)c4ccccc4)cc3nc2s1 (stereo unspecified) -37.3%
CC1=C(c2ccc(C(C)C)cc2)S(=O)(=O)N=C1N1CCN(c2ccccc2F)CC1 -15.7%
COc1ccc(S(=O)(=O)N(CC(=O)NCCSc2ccc(C)cc2)c2ccc(C)cc2)cc1 -21.9%
CCOc1ccccc1NC(=O)CSc1c2c(nc3ccc(Cl)cc13)CCCC2 -15.2%
CCOC(=O)C1CCCN(S(=O)(=O)c2cc(-c3onc(C)c3C)ccc2OC)C1 (stereo unspecified) -30%
CCc1c(-c2ccccc2)nc2ccccc2c1C(=O)NC(C)c1ccccc1 (stereo unspecified) -34.4%
NC(=O)n1c(O)c(C(=O)c2cccs2)c2cc(Cl)ccc21 -72.9%
CCOc1ccccc1NC(=O)c1nc(S(=O)(=O)Cc2cccc(C)c2)ncc1Cl -22.4%
COc1ccc(-c2noc(CNC(=O)c3cc(OC)c(OC)c(OC)c3)n2)cc1 -8.88%
Cc1[nH]c2ccc(C(=O)NCCCN3CCCCC3)cc2c1C -8.37%
CC(=O)N1CCC(N(Cc2ccc(C)o2)C(=O)Nc2ccccc2F)CC1 -1.35%
CCCN(c1ccccc1F)S(=O)(=O)c1ccc2c(c1)C(C)(C)C(=O)N2C -31.3%
Cc1nc2c(c(C)c1CCC(=O)NCc1ccc(F)cc1)c(=O)n(C)c(=O)n2C -5.42%
CCCCCN(CCCCC)C(=O)C(CCC(=O)O)NC(=O)c1ccc(Cl)c(Cl)c1 (stereo unspecified) -4.04%
CCCCOc1cccc(C(=O)Nc2sc3c(c2C(=O)OCC)CCCC3)c1 -7.47%
COc1cccc(NC(=O)CSc2nc(=O)n(Cc3cccnc3)c3c2CCC3)c1 -20.8%
Cc1cccc2c(=O)cc(CSc3ccccc3NC(=O)C(C)C)[nH]c12 -11.7%
Cc1ccc2nc3c(cc(C#N)c(=O)n3-c3nnc(SCc4ccc(F)cc4)s3)c(=O)n2c1 -5.87%
CCOc1ccccc1NC(=O)Cn1c(=O)n(CC(=O)NCc2ccccc2Cl)c(=O)c2sccc21 7.14%
Cc1ccc(Sc2ccc(N3CCCC(C(=O)Nc4ccc(F)c(Cl)c4)C3)nn2)cc1 (stereo unspecified) -24.5%
CCCN(CCC)C(=O)Cn1c(=O)n(-c2ccc(OC)cc2OC)c(=O)c2c3c(sc21)CCC3 -14.1%
CCOc1ccc(CNC(=O)c2ccc3c(c2)c(C)c(C)n3C)cc1 0.259%
COc1ccc(CCNC(=O)CCCCn2c(=O)c3ccccc3n(Cc3cc(C)ccc3C)c2=O)cc1OC -8.31%
CCOc1ccc(-n2c(SCc3ccccc3)nc3c([nH]c4ccccc43)c2=O)cc1 -20.5%
CCCn1c2ccccc2c2cnn(CC(=O)NCC3CCN(Cc4ccc(C)cc4)CC3)c(=O)c21 -36.6%
CCOC(=O)c1ccc(NC(=O)c2c(NCc3sccc3C)sc3c2CCC(C)C3)cc1 (stereo unspecified) -45.6%
Cc1ccc(C)c(N2CCN(C(=O)CCc3nnc4n(C)c(=O)c5ccccc5n34)CC2)c1 -0.254%
CN1CCN(C(CNC(=O)C(=O)Nc2ccc(Cl)cc2)c2cccnc2)CC1 (stereo unspecified) -5.06%
CCOCCCNC(=O)c1c[nH]c2ccc(S(=O)(=O)N(C)c3ccc(Cl)cc3F)cc2c1=O -32%
CCOC(=O)c1cccnc1SCC(=O)N(CC)c1cccc(C)c1 -25.5%
CC(C)(C)c1ccc(OCC(=O)Nc2ccc(C(=O)OC3CCCCC3)cc2)cc1 -3.88%
COc1ccc(F)cc1S(=O)(=O)NCC(c1ccco1)S(=O)(=O)c1cccs1 (stereo unspecified) 15%
CC(C)Cn1nc(NC(=O)c2cccc(Cl)c2)c2cc3ccccc3nc21 -5.52%
CCc1ccccc1NC(=O)c1oc(=O)c2ccccc2c1-c1ccccc1 -15%
COc1ccc(Cl)cc1NC(=O)CSc1nc(=O)n(Cc2ccco2)c2c1CCC2 -42.5%
Nc1ccc(O)cc1 -3.03%
CCOC(=O)c1ccccc1NC(=O)c1cn(CC(C)C)c(=O)c2cc(OC)c(OC)cc12 -0.684%
Cc1ccc(-n2ncc3c(Nc4ccc(Oc5ccccc5)cc4)ncnc32)c(C)c1 -17.1%
COc1ccc(OC)c(-c2noc(CSc3nnc(-c4ccccc4)n3-c3ccccc3)n2)c1 -32.3%
Cc1ccc(OCC(=O)Nc2nnc(S(=O)(=O)N3CCc4ccccc43)s2)cc1 -13.2%
COc1ccc(N2CCN(S(=O)(=O)c3ccc(C4CCCCC4)cc3)CC2)cc1 -8.03%
Cc1ccc(NC(=O)Nc2nnc(SCC(=O)N3CCCCC3)s2)cc1 -12.7%
Cc1cc(N2CCOCC2)cc2[nH]c(-c3c(NC[C@@H](O)c4cccc(Cl)c4)cc[nH]c3=O)nc12 -39.5%
COc1ccc(Nc2cc(C)c3cc(NC(=O)c4ccccc4Cl)ccc3n2)cc1 -42.7%
COc1cccc(N2CC(NC(=O)c3cc4ccccc4o3)CC2=O)c1 (stereo unspecified) -6.82%
Fc1ccc(-c2noc3ncnc(NCCc4ccc(Cl)cc4)c23)cc1 -46.5%
CC(C)c1ccc2c(c1)NC(c1ccc(F)cc1)=NC(c1cccs1)=N2 -11.4%
Cc1nc2ncnn2c(C)c1CCC(=O)N1CCN(c2ccc(F)cc2)CC1 -11.3%
COc1cccc(CNC(=O)N2CCc3c(sc4c3CCCC4)C2c2ccc(F)cc2)c1 (stereo unspecified) -54.1%
Cc1cccc(C(=O)NCCc2nc3ccccc3n2Cc2ccccc2Cl)c1 -17.6%
Cc1cc(Nc2cccc(C(F)(F)F)c2)nc2ccc(NC(=O)Cc3ccc(Cl)cc3)cc12 -46.3%
CCOC(=O)CCc1c(C)nc2c(-c3ccccc3)c(C)[nH]n2c1=O -2.39%
O=C(CSc1nnc(-c2ccncc2)n1-c1ccccc1)Nc1ccc(F)cc1 -17.5%
CCOc1ccccc1CNC(=O)CSc1n[nH]c(-c2ccccc2)n1 -25.4%
CC(C)c1noc(-c2ccccc2OCC(=O)Nc2ccc([N+](=O)[O-])cc2)n1 -9.31%
COc1ccc(OC)c(C2C(C(=O)Nc3ccc(C)cc3C)=C(C)Nc3c(C(=O)Nc4ccc(F)cc4)cnn32)c1 (stereo unspecified) -3.34%
CCn1c2c(c(=O)n3ncc(C(=O)N4CCN(c5ccccc5)CC4)c13)CN(Cc1ccc(OC)cc1)CC2 -18.4%
Cc1cc(=O)n(Cc2cccc(Cl)c2)c2c1c(C)nn2C -24.2%
CCCCOc1cccc(C(=O)N(Cc2ccc(N(C)C)cc2)C2CCS(=O)(=O)C2)c1 (stereo unspecified) -30.3%
O=C(Cn1cnc(S(=O)(=O)N2CCCC2)c1)Nc1cccc(Br)c1 -17.1%
Cc1cc(-c2nc3ncccc3o2)ccc1NC(=O)c1ccccc1Br 23.5%
O=C(COc1ccc(F)cc1)NCC(c1ccc(Cl)cc1)N1CCCCC1 (stereo unspecified) -21.7%
Cc1ccc(CCNC(=O)CCCn2c(=O)c3ccccc3n(Cc3ccccc3C)c2=O)cc1 -31.7%
